Assay results from ChEMBL document CHEMBL4888484, “Replenishing the malaria drug discovery pipeline: Screening and hit evaluation of the MMV Hit Generation Library 1 (HGL1) against asexual blood stage Plasmodium falciparum ,using a nano luciferase reporter read-out” (2022).
Out of some 4,800 compounds screened, about 410 (8.5%) showed an effect of 50% or more. The list shows a part of the results.

System: Plasmodium falciparum
Assay: Confirmatory screen in NF54 pLDH assay, in single point, at 2uM, 72h
Type: functional, Erythrocyte
Details: timepoint 72 hour

Structure (SMILES)	% Inhibition [%]
O=C(NC1CCCCC1)c1cc2c(Cl)ccc3c2n1CCO3	-22
O=C(NC1CCCOC1)NC1CCCOc2c1ccc1ccccc21 (stereo not given)	7
CC(=O)Nc1ccc(S(=O)(=O)NCc2ccc(C(=O)NC3CCC(C)CC3)cc2)cc1 (stereo not given)	11
O=C(Nc1cccc(Cl)c1)Nc1cccc(-c2cnc3n2CCC3)c1	75
Cc1c(-c2ccccc2Br)[nH]c2cc3c(cc2c1=O)OCCO3	-24
COc1ccc(N2CCN(Cc3c(O)nc(O)c(C#N)c3C)CC2)cc1	2
Cc1c2c(=O)n(-c3nc4ccccc4s3)n(Cc3ccccc3)c2cc(=O)n1Cc1ccc2c(c1)OCO2	21
COCc1nncn1C1CN(C(=O)Cc2ccc(OC)c(OC)c2)C1	-12
Cn1nc(-c2nc(-c3ccc(F)cc3)no2)c2c1CCN(C(=O)c1cccc(Cl)c1)C2	2
Brc1ccc2c(c1)c1cc(Br)cc(Br)c1n2CN1CCOCC1	-19
O=C(Cc1cc(F)c(F)cc1F)N1CCOC[C@H]1c1ncon1	9
O=C(N[C@@H](N1CCCC1)C(Cl)(Cl)Cl)c1ccc(Cl)cc1	-13
CCC(=O)N(CCN(C)C)Cc1c(-c2ccccc2)noc1N1CCCCC1	13
O=C(Cc1ccc(F)cc1F)N1CCc2[nH]nc(C(=O)N3CCN(c4ccccc4)CC3)c2C1	5
CC(=O)N(C1CCOCC1)[C@H]1CCCN(C(=O)Cc2cccnc2)C1	-4
O=C(N1CCCN(c2nc3ccccc3nc2-c2ccccc2)CC1)C(Cl)(Cl)Cl	36
Cc1ccc(CN(CCN2CCCC2)Cc2ccc(C)o2)o1	9
CCn1nc(CNC[C@H](C)O)c(-c2ccccc2)n1	-5
CC1CCCCC1OCCN1CCCC(C2(C)NC(=O)NC2=O)C1 (stereo not given)	2
COc1ccc(CNC(=O)c2cc(C(=O)c3ccc(F)cc3)c[nH]2)cc1	-15
COc1ccc(CCNCC(=O)Nc2c3c(nc4ccccc24)N(C)CC3)cc1OC	6
CCOc1ccccc1C(=O)Nc1c(-n2cnnc2)nn(C)c1C	-2
CC1CC(C(=O)Nc2[nH]c(=O)ncc2F)CC(C)(C)C1 (stereo not given)	84
O=C(NS(=O)(=O)c1ccc2c(c1)OCCCO2)c1cc2c(s1)CCC2	4
CC1CCC(NC(=O)[C@H]2CCS(=O)(=O)C2)CC1 (stereo not given in full)	-16

Structure (SMILES)	% Inhibition [%]
Cc1ncc(CN(CCN(C)C)CC2CCCCC2)s1	-3
Cc1ccc(/N=C(/Nc2ccc(Br)cc2)c2cc(C(C)(C)C)c(O)c(C(C)(C)C)c2)cc1	-12
CCOc1cc(=O)c(C(=O)N2CCC(C(N)=O)CC2)nn1-c1ccc(F)cc1	5
Cc1nccn1-c1cc(CNC(=O)[C@H]2CCCN(S(=O)(=O)c3cccs3)C2)ccn1	7
COCCc1nc(C2(Nc3ccc(Cl)cc3)CCC2)no1	8
COc1cccc(C(=O)N2C[C@@H]3C[C@H](NC(=O)c4ccccc4)[C@H]2C3)c1OC	-2
Cc1cc(NC(=O)c2ccc[nH]2)ccc1Oc1ccncc1	1
O=S(=O)(Nc1cccc2cccnc12)c1cccs1	64
O=C(NCC1(Cc2ccccc2)CCC1)N(CCO)C1CC1	-1
COc1cccc(Cn2nc3ccc(S(=O)(=O)N4CCCC4)cn3c2=O)c1	11
O=C1c2ccccc2[C@H]2N1CCN2c1ccccc1	8
Cc1c(C2=NO[C@H]3C(=O)N(c4ccc5ccccc5c4)C(=O)[C@@H]23)cnn1C	8
CC(C)c1ocnc1C(=O)N[C@](C)(C#N)CCc1ccccc1	9
Cc1cccc(C(=O)N2CCc3[nH]nc(C(=O)N[C@H]4CCCc5ccccc54)c3C2)c1	-1
COc1ccc([C@@H]2NC(=O)c3cc(C(C)C)sc3N2)cc1COc1ccc(F)cc1F	7
COc1ccc(NC(=O)Cn2cnc3nc(N(C)Cc4ccccc4)sc3c2=O)cc1Cl	-10
O=C([C@H]1CC(=O)N(c2ccc(F)c(Cl)c2)C1)N1CCN(C(c2ccccc2)c2ccccc2)CC1	10
Cc1ccc(OCC(=O)Nc2ccc(N3CCn4c(nc5ccccc54)C3)cc2Cl)cc1	-20
CCCN1CCN(CCCNC(=O)c2ccc(Cl)c(-n3c(C)nc4cccnc43)c2)CC1	13
Cc1ccc(-c2nn[nH]n2)cc1-n1cccn1	6
Cn1cc(-c2cc(-c3cnn(C)c3)n(S(=O)(=O)c3ccc(Cl)cc3)n2)cn1	-17
O=C(c1cc(-c2ccncc2)on1)N1CCOC2(CCCCCC2)C1	8
N[C@@H](CO)c1cccc(Br)c1	4
O=C(Cc1ccc(Cl)cc1Cl)N1CCc2[nH]nc(C(=O)N3CCN(c4ccccc4)CC3)c2C1	5
O=C(CCc1ccc2cc[nH]c2c1)NCc1cccc(Cl)c1	5

Structure (SMILES)	% Inhibition [%]
FC(F)(F)c1ccc(-c2nc(Cn3ccnn3)co2)cc1	2
COC(=O)c1cc(Cl)cc(NC(=O)CC2CCNCC2)c1	-15
Cc1nc(-c2ccc(N3CCC(NCCCn4ccnc4)CC3)cc2)cs1	23
CCCc1nnc(NC(=O)C(=O)OCC)s1	-3
COc1ccc(CCc2nnc3n2CCOC3)cc1	-1
Cc1cc(N2CCN(c3ccccn3)CC2)n2cc(-c3ccccc3)nc2n1	14
C[C@H](C(=O)NCC1CCN(Cc2ccccc2F)CC1)C1CCOCC1	3
Cc1noc(C)c1CN1C[C@@H]2Oc3cc(F)ccc3C(=O)N(C)[C@@H]2C1	97
CCCNC(=O)c1c(NC(=O)c2ccc3c(c2)c(C)c(C)n3Cc2ccccc2)cnn1C	-21
O=C(NCc1noc(Cc2ccccc2)n1)c1ccno1	5
OC(CNC1CCCNc2ccccc21)c1ccc(Cl)s1 (stereo not given)	51
Cn1c(=O)c2nc(N3CCOCC3)[nH]c2n(-c2ccccc2)c1=O	-7
Cc1ccc2c(c1)[C@@H](O)C[C@@H](C)N2C(=O)c1ccco1	-4
NC(=O)c1cccc(NC(=O)CC2=CCCCC2)n1	-9
CC(c1ccccc1)N1C(=O)c2ccccc2C1c1c[nH]c2ccccc12 (stereo not given)	11
O=C(c1cc(F)c[nH]1)N1CCN(C(=O)c2cc(F)c[nH]2)[C@@H]2CCCC[C@H]21	17
CC(C)CNC(=O)N1CCCC[C@H]1c1noc(COc2ccc(F)cc2)n1	-14
O=C(NC1CCCC1)c1cc2ccccc2[nH]1	-9
Cc1cc(-c2cncc(CN3CCCCC3)c2)ccc1F	8
CN(c1nc2c(cnn2C)c(=O)[nH]1)C1CCCC1c1ccc(C(F)(F)F)cc1 (stereo not given)	10
Cc1nc2cc(F)ccc2cc1C(=O)N1CCN(S(=O)(=O)c2ccc(Br)cc2)CC1	6
C[C@@H](CN)N(C)c1ccnc2cc(Br)cnc12	96
CS(=O)(=O)Nc1nc2c(s1)CN(C(=O)c1ccc3c(c1)CCC=C3)CC2	10
Cc1cccc(C(=O)Nc2c(C#N)c(-c3ccccc3)c(-c3ccccc3)n2Cc2ccccc2)c1	13
COc1ccc(Cl)cc1S(=O)(=O)N(C)[C@H]1CCc2n[nH]c(=O)n2CC1	-2

Structure (SMILES)	% Inhibition [%]
COC(=O)c1c(NC(=O)[C@H]2CCCN(S(=O)(=O)c3cnn(C)c3C)C2)cnn1C	8
Cc1cc(C(=O)Nc2ccc3ccccc3c2)co1	-3
COC(=O)C(NCc1cnc(C)s1)C(C)O (stereo not given)	6
COCCN(Cc1c(-c2cccc(C)c2)noc1N1CCOCC1)C(=O)C1CCCC1	-11
O=S(=O)(Oc1ccc(Cc2ncc(C(F)(F)F)cc2Cl)cc1)c1ccccc1Cl	11
COc1ccccc1[C@H]1CC(O)=Nc2c1ncn2-c1cc(F)ccc1F	-7
COCCCn1c(COc2ccc(OC)cc2)n[nH]c1=O	0
CN(C(=O)CN(C)S(=O)(=O)c1cccnc1)C1CCCC1	7
O=C(Nc1nccs1)c1ccc2c(c1)CC(c1ccccc1)(c1ccccc1)OC2=O	3
Cc1cc(C)c(NC(=O)CCn2c(=O)c(C)nc3cc(C)c(C)cc32)c(C)c1	11
CC1(C)CC(C(=O)Oc2ccccc2)CC(C)(C)N1	3
COc1ccc(N2CCN(c3nc(-c4ccccc4)cs3)CC2)cc1	0
CC(C)CN(CC(C)(C)C)C(=O)c1cc[nH]n1	-2
COc1ccc(C(=O)N[C@@H](C(=O)Nc2ccccc2C)c2ccc(Cl)cc2)cc1	16
CN1C(=O)[C@@H]2CCCCN2c2ccc(C(=O)N3CCN(c4cccc(Cl)c4)CC3)cc21	8
Cc1cccc(CN2CCC[C@H](C(=O)c3ccc4c5c(cccc35)CC4)C2)n1	67
O=C(Nc1cccc(C(F)(F)F)c1)S(=O)(=O)c1ccccc1	-15
CC(C)C[C@@H]1N[C@H](C(=O)NC2CCCC2)Cc2cn(C)c3cccc1c23	13
Fc1ccc(COc2ccc3ccccc3c2CNc2ccc(Br)cc2)cc1	10
Cc1cccc(Oc2nc3ccccc3n3c(=O)n(CC(=O)NCc4ccc(Cl)cc4)nc23)c1C	-8
Cc1ccc(NCc2ccc(OCc3cccc4ccccc34)c(Br)c2)cc1	11
O=C1[C@@H]2[C@H](Cc3c[nH]c4ccccc34)N[C@]3(C(=O)Nc4ccccc43)[C@@H]2C(=O)N1c1cccc(C(F)(F)F)c1	13
c1cc([C@@H]2CCCCN2c2nc(C3CC3)ns2)n[nH]1	3
Cc1ccc(C(=O)N2CCC(N3C(=O)[C@H]4CCCN4C3=O)CC2)cc1	3
Fc1cccc(-n2nc(-c3ccccc3F)cc2-c2ccccc2F)c1	-7
